# Test results published in article PMC4336329 (PLoS ONE, 2015).
# About 14,000 (4.5%) of roughly 310,000 compounds showed an effect of 50% or more. Effects have a minus sign here. Some of the results follow.
# Target: human ether-à-go-go-related gene (hERG) potassium channel (human, UniProt Q12809)
# Assay: primary screen, population patch clamp on CHO cells stably expressing hERG
# 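Also: peak tail current of the secondary pulse compared with the same well before compound.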
# Sequence of human ether-à-go-go-related gene (hERG) potassium channel (Q12809 whole entry, looked up): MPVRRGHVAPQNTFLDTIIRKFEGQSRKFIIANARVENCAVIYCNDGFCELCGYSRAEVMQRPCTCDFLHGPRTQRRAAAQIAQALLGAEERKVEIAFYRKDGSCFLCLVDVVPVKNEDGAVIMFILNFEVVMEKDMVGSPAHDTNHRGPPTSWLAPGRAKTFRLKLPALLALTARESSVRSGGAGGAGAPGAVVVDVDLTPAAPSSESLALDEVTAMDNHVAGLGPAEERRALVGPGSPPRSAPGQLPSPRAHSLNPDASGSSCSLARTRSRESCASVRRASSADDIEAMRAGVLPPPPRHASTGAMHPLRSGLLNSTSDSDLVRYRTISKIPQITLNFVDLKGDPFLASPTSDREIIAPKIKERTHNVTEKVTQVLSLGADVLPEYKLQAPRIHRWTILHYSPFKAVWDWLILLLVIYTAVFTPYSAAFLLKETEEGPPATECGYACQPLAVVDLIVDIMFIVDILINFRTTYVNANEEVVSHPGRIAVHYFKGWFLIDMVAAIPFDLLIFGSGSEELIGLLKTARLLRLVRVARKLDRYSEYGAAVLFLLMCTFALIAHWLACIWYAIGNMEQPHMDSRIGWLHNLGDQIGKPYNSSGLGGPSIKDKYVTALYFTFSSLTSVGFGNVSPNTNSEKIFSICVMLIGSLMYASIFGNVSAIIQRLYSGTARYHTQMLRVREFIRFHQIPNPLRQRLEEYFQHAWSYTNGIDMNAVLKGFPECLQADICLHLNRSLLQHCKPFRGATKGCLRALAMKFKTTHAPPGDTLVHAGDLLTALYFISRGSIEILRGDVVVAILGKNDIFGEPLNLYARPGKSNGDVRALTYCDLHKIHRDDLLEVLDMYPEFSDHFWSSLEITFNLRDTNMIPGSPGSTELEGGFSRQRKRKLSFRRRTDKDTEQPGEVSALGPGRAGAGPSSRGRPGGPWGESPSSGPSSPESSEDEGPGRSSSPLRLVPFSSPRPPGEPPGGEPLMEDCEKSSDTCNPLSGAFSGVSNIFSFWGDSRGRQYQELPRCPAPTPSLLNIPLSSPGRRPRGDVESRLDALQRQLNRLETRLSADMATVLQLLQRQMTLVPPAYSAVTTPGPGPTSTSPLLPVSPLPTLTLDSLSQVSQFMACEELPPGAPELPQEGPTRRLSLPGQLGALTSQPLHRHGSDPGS
row,Structure (SMILES),"hERG current change (%, negative = inhibition) at 10uM [%]"
1,COc1ccc(NC(=O)CN2C(=O)N(C)Cc3ccccc32)c(C)c1,-11.5
2,CP(=O)(O)CCCN.Cl,7.29
3,CC1(C)CC(=O)c2c(O)c(-c3ccccc3)c(=O)n(-c3ccccc3)c2C1,-6.83
4,O=C(Cc1ccccc1)Nn1c(-c2ccccc2F)nc2ccccc2c1=O,10.3
5,Cc1ccccc1OCCCn1c(CO)nc2ccccc21,16.7
6,Cc1cc(C)c2c(=O)[nH]c(SCC(=O)c3ccc(F)c(C)c3)nc2n1,6.79
7,CCOc1ccccc1NC(=O)CC1Nc2cc(C)c(C)cc2NC1=O (stereo not shown),-2.54
8,Cc1ccc(SC(C)c2nc(-c3ccncc3)no2)cc1 (stereo not shown),-24.3
9,CCOCCCn1c(SCC(=O)NCc2ccco2)nc2c(sc3ccccc32)c1=O,-27.6
10,Cc1sc2nc(-c3cccs3)oc(=O)c2c1C,17.8
11,CNC(=S)NNC(=O)COc1ccccc1C,11.8
12,Cn1c(CNc2cccc(Cl)c2)nnc1SCC#N,-0.661
13,O=C(Nc1nnc(-c2cccs2)o1)c1cccc(Oc2ccccc2)c1,-1.89
14,Cc1ccc(OCc2cc(C(=O)NCc3cnn(-c4cccc(F)c4)c3)no2)cn1,-2.68
15,Cc1ccc(C)c2c(SC(C)C(=O)NCc3ccco3)nc(-c3ccccc3)nc12 (stereo not shown),-64.7
16,COc1cccc(F)c1C(=O)NC(=O)Nc1ccc2nc(C)oc2c1,5.61
17,O=C(CSc1nnc(CNC(=O)c2c(F)cccc2Cl)o1)Nc1ccc2c(c1)OCO2,5.77
18,CCOc1ccccc1/C=N/OCC(=O)NCc1ccc(F)cc1,-0.596
19,O=C(NCc1ccccc1)c1cnc2n(c1=O)CCS2,8.61
20,O=[N+]([O-])c1ccccc1/C=C/CN1CCSCC1,-5.62
21,COc1cc(C(=O)Nc2sc(C)c(C)c2C(=O)O)cc(OC)c1OC,13.4
22,O=C(NC1CCN(C(=S)NCc2ccco2)CC1)C1CCCCC1,-0.866

row,Structure (SMILES),"hERG current change (%, negative = inhibition) at 10uM [%]"
1,Cc1cc2oc(=O)cc(COC(=O)Cn3cnnn3)c2cc1C(C)C,-4.84
2,Cc1ccc(NS(=O)(=O)c2ccc(F)cc2)nc1,14
3,CC1(C)CC(NNCCC#N)=CC(=[N+]2CCCC2)C1.[I-],5.87
4,COc1ccccc1Oc1ccc(N2CC(C(=O)OCC(=O)c3ccccc3)CC2=O)cc1 (stereo not shown),18
5,CCOC(=O)c1c(-c2ccccc2)csc1NC(=O)CSc1ccccc1,-4.13
6,COc1ccc(-c2nn(-c3ccccc3)cc2CO)cc1,4.56
7,COc1cccc(OC)c1C(=O)NC(=S)Nc1ccc2oc(-c3ccncc3)nc2c1,4.34
8,C[C@H](NC(=O)Cc1ccccc1)C(=O)N1CCC2(CC1)NCCc1[nH]cnc12,15.5
9,CN(CCC#N)C(=O)COC(=O)c1ccc(Cl)cc1O,2.81
10,COC(=O)c1cccc(NC(=O)CN2CCOCC2)c1,11
11,CCOC(=O)C1CCCN(S(=O)(=O)c2cc3c(cc2Cl)NC(=O)CO3)C1 (stereo not shown),-41.2
12,Cc1c(NC(=S)NC(=O)c2ccc(-c3ccc(Cl)cc3)o2)cccc1C(=O)O,21.7
13,COc1ccc(C2C(Oc3ccccc3)C(=O)N2c2cc(C)ccc2C)cc1OC (stereo not shown),6.07
14,CCOc1cc(NC(=S)NCC2CCCO2)c(OCC)cc1NC(=O)c1cccc(F)c1 (stereo not shown),7.62
15,CN(C(=O)COC(=O)COc1ccc(Cl)cc1)C1CCCCC1,-17.4
16,Cc1cccc(N(CC(=O)NC2CCCCC2)C(=O)CCCC(=O)Nc2ccccn2)c1C,-16.1
17,CC(C)c1cc(C(=O)N2CCCC(Nc3ccc(F)c(F)c3)C2)nc(N)n1 (stereo not shown),6.66
18,Cc1ccccc1NC(=O)c1snc2c(=O)[nH]cnc12,9.89
19,Cl.N=c1sc2c(n1Cc1ccccc1)CCCC2,-49.3
20,CC(C)c1ccc(N2C(=NC(=O)C3CC3)SC3CS(=O)(=O)CC32)cc1 (stereo not shown),13.3
21,CSc1ccc(/C=C/C(=O)OCC(=O)N2CCc3ccccc32)cc1,0.871
22,c1ccc(-c2cnnc3ccccc23)cc1,-13.5

row,Structure (SMILES),"hERG current change (%, negative = inhibition) at 10uM [%]"
1,CC(=O)NC(c1ccc(C(C)C)cc1)c1c(O)ccc2ccccc12 (stereo not shown),8.87
2,Cc1ccc(Cn2ncc3c(N4CCN(C5CCCC5)CC4)ncnc32)cc1,-22.9
3,O=C(Nc1ccccn1)c1ccc2ccccc2c1O,10.1
4,CC1(c2nnc(-c3cccc(Cl)c3)o2)CC(c2ccccc2F)=NO1 (stereo not shown),0.552
5,CC(C)N(C(=O)CSc1nnc(NC(=O)c2cccs2)s1)C(C)C,7.25
6,O=C(NCC1CCCCC1)C1CCCN(C(=O)NC2CCCCC2)C1 (stereo not shown),-11.8
7,N#Cc1cnn2c(-c3ccccc3)ccnc12,2.49
8,Cc1cc(Cl)cc(Br)c1OCCCN1C(=O)NC(C)(C)C1=O,-0.566
9,CC1CCCCN1CCCNc1ccc(C(CC(N)=O)NC(=O)c2ccccc2)cc1[N+](=O)[O-] (stereo not shown),3.35
10,CC1(C)Cc2ccccc2C(NNC(=O)c2cccnc2)=N1,5.46
11,O/C(=C\c1nc2ccccc2nc1/C=C(\O)c1ccccc1)c1ccccc1,-5.5
12,Cc1ccc(O)c(C(=O)c2cnn(C(=O)COc3ccccc3C#N)c2)c1,5.14
13,Cc1cccc(NC(=O)CSc2nnc(CNC(=O)c3ccco3)n2C)c1C,-17.3
14,O=C(c1ccco1)N1CCN(c2c([N+](=O)[O-])nn(-c3cccc(Cl)c3)[n+]2[O-])CC1,-38.1
15,Cc1sc(=NC(=O)c2ccco2)n(C)c1-c1ccc(Cl)cc1,-39.2
16,Fc1ccccc1COc1ccc(-c2nnn(Cc3ccccc3F)n2)cc1,13.9
17,Cc1csc(NC(=O)CCc2c(C)nc3cc(-c4ccc(Cl)cc4)nn3c2C)n1,-2.4
18,Cc1ccc(-n2c(C)cc(/C=N\NC(=O)CC(=O)NC(C)C)c2C)cc1,-3.18
19,COc1ccc2c(c1)c(CC(=O)NCc1cc([N+](=O)[O-])ccc1O)c(C)n2C(=O)c1ccc(Cl)cc1,0.227
20,COC(=O)C1C(c2ccccc2)C(C(=O)N2CCOCC2)C1c1ccccc1 (stereo not shown),-3.76
21,O=C(COc1ccc(F)cc1)N(Cc1ccc(Cl)cc1)C1CCS(=O)(=O)C1 (stereo not shown),-38.7
22,C=CCSC1=N/C(=C\C=C\c2ccco2)C(=O)S1,7.36

row,Structure (SMILES),"hERG current change (%, negative = inhibition) at 10uM [%]"
1,CO/N=C/NC(=O)N1OC[C@@H]2COc3ccc4ccccc4c3[C@@H]21,8.59
2,COCCNC(=O)/C(C#N)=C/c1ccccc1Br,0.195
3,CCN(CC(=O)Nc1c(F)cccc1F)C(=O)CNC(=O)c1ccc(C)s1,23.3
4,Cc1noc(C)c1C(=O)N1CCC2(CC1)Oc1ccc(F)cc1C(=O)C21CC(c2ccc(Cl)cc2)=NO1 (stereo not shown),-48
5,O=C(CN(CCc1ccccc1)C(=O)CNS(=O)(=O)c1ccccc1)NCc1ccco1,-12.4
6,CCOC(=O)C/C(C)=N/NC(=O)C1CC1(c1ccccc1)c1ccccc1 (stereo not shown),18.3
7,CC(C)[C@H](NC(=O)[C@@H]1Cc2ccccc2CN1C(=O)OC(C)(C)C)C(=O)NCc1ccco1,-8.57
8,CCN(CC)c1ccc(NC(=O)Cn2nnc(-c3cccc(OC)c3OC)n2)c(C)c1,8.92
9,COc1ccc(Cl)cc1NC(=O)CN(C)C(C)C(=O)NCC1CCCCC1 (stereo not shown),-34.4
10,COc1ccc(CCNc2ncnc3[nH]ncc23)cc1OC,8.04
11,O=C(NCc1cccs1)C1CCN(S(=O)(=O)c2ccc3c(c2)OCCO3)CC1,16.5
12,Cc1cc2oc(=O)cc(CN3CCCCC3)c2cc1C(C)C,-26
13,CCOC(=O)c1ccc(N/N=C/c2cc(Br)cc([N+](=O)[O-])c2O)cc1,17.9
14,CCC(Sc1nc(C)cc(=O)[nH]1)C(=O)Nc1nc(-c2ccccc2)cs1 (stereo not shown),2.21
15,Cc1cc(C)c(S(=O)(=O)Nc2ncn[nH]2)c(C)c1,-0.0808
16,CCC(=O)Nc1ccc(C(=O)Nc2c[nH]c(=O)[nH]c2=O)cc1,24.6
17,COC(=O)c1sccc1NC(=O)c1sccc1C,8.93
18,CCCn1cc(CN2CCC(n3nccc3NC(=O)CCOc3ccccc3)CC2)c(C)n1,-13
19,CN(Cc1ccccc1F)C(=O)c1ccccc1Sc1ccccc1C#N,-8.62
20,Cc1cccc(CN2CCN(C(=O)c3cccc4ccccc34)CC2)c1,3.17
21,COc1ccccc1C(c1nnnn1Cc1ccccc1)N1CCC(C(N)=O)CC1.Cl (stereo not shown),-7.13
22,O=C(O)c1cccc(N2C(=O)/C(=C/c3ccc([N+](=O)[O-])cc3)C=C2c2ccccc2)c1,5.76
